Test results taken from PubChem BioAssay AID493208 (National Center for Advancing Translational Sciences (NCATS), 2011).
Hit rate of the full screen: of about 44,000 compounds, about 340 (0.77%) were called active. Not shown: some 5% with an inconclusive outcome. Calls come from the whole dose curve; as a rule, active = well fitted inhibition curve with a large enough effect; inconclusive = small, poorly fitted or top-dose-only effect; inactive = flat fitted curve, though single readings scatter. The list shows a part of the results.

test: Acumen qHTS Assay for Inhibitors of the mTORC1 Signaling Pathway in MEF (Tsc2-/-, p53-/-) Cells: Sytravon; conditions: phospho-rpS6 immunofluorescence/PI, 24 h; series mostly up to 38.3 µM; activity change, negative = inhibition: at the top concentration;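 note: plate controls were DMSO for no effect and rapamycin for full effect; nearly all actives have a fitted effect of over 50% in size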
Procedure, shortened: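 Immunofluorescence of rpS6 phosphorylation in Tsc2-/-, p53-/- MEFs after 24 h compound exposure, normalized to propidium iodide signal. Activity is expressed as % positive cells, thresholded with 7.5 nM rapamycin.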

Activity change, negative = inhibition, inactive:
COc1ccccc1-c1cc(C(=O)NCc2ccccc2)c2c(-c3ccc(C)cc3)[nH]nc2n1 -0.837%
COc1ccc(NC(=O)c2oc3ccccc3c2NC(=O)Cc2coc3c(C)c(C)ccc23)cc1 -2.25%
COc1ccc(-c2nc3cc(NC(=O)CSc4ccc(C)cc4)ccc3o2)cc1 -15.3%
CCc1ccc(NC(=O)Cn2ccn(-c3ccc(C)c(C)c3)c(=O)c2=O)cc1 1.58%
O=C(CSc1n[nH]c(-c2ccc(F)cc2)n1)NCCc1ccccc1 3.87%
Cc1c(Cl)cccc1NC(=O)CCS(=O)(=O)c1ccc2c(c1)CC(=O)N2C 2.37%
Cc1ccc(S(=O)(=O)NCCc2cn3ccsc3n2)c(C)c1 -2.66%
CCN(CC)CCNC(=O)c1c2c(nc3ccccc13)C(=O)N(C1CCCCC1)C2 -0.112%
COc1cccc(NC(=O)Cn2cc(C(=O)c3ccc(C)cc3)c(=O)c3cc(OC)ccc32)c1 -12.7%
Cc1ccccc1NC(=O)Cn1c(=O)n(Cc2ccc3c(c2)OCO3)c(=O)c2ccccc21 -21.2%
Cc1cccc(C2CC(=O)Nc3cc4c(cc32)OCO4)c1 (stereo unspecified) -12.4%
CCc1nc2nc(C)cc(Nc3cccc(C)c3C)n2n1 -11.8%
CCc1ccc(NC(=O)CN2C(=O)C3(SCC(=O)N3c3ccc(F)c(F)c3)c3ccccc32)cc1 (stereo unspecified) 1.95%
Cc1cc2ccccc2n1CCNC(=O)c1ccc(Br)cc1 1.23%
CC(C)c1ccc(OCC(=O)N(Cc2cccs2)C2CCS(=O)(=O)C2)cc1 (stereo unspecified) 1.54%
COc1ccc(CNC(=O)CCc2c(C)c3cc4c(C)c(C)oc4cc3oc2=O)cc1OC 0.115%
O=C(NC1CCCC1)c1ccc2c(=O)n(Cc3ccccc3)c(SCc3cccc(F)c3)nc2c1 -0.525%
CCN(CC)c1ccc(NC(=O)CCCN2C(=O)C(c3ccccc3)Oc3cccnc32)c(C)c1 (stereo unspecified) -13.7%
CCOc1cc(Cl)c(S(=O)(=O)n2ccnc2)cc1Cl 3.61%
Cc1nnc(N2CCC(C(=O)NCCC(C)C)CC2)c2nn(-c3ccc(Cl)cc3)c(C)c12 -9.12%
CCC(C(=O)N1CCN(c2ccccc2)CC1)n1c(C)c2cnn(-c3ccccc3)c(=O)c2c1C (stereo unspecified) -6.78%
Cc1cc(C)n(C(C)CC(=O)Nc2ccc(C)c(N(C)C)c2)n1 (stereo unspecified) -5.37%
C=C(C)CSc1nc(-c2ccccc2)cc(-c2ccc(OC)cc2)c1C#N -13.7%
COC(=O)c1ccc(NC(=O)CN2C(=O)CC(c3ccccc3)Sc3ccccc32)cc1 (stereo unspecified) -3.2%
Cc1ccc(N2CC(C(=O)Nc3ccc(N(C)C)cc3)CC2=O)cc1Cl (stereo unspecified) -12.6%
Fc1ccccc1N1CCN(c2nc3ccccc3c3nc(-c4ccccc4)nn23)CC1 -3.24%
CSc1ccc(-c2nnc(NC(=O)c3ccc4c(c3)OCCO4)o2)cc1 6.39%
CC(=O)Nc1cccc(-n2cc3c(c2-c2ccccc2Cl)c(=O)n(C)c(=O)n3C)c1 -1.57%
O=C(CCn1ccc2cc(S(=O)(=O)N3CCCC3)ccc21)NCc1ccccc1Br -2.67%
O=C(CN1C(=O)c2cccnc2Oc2ccc(Cl)cc21)Nc1cccc(C(F)(F)F)c1 -9.99%
COc1ccc(C)cc1Nc1cc(C)nc(C)n1 -0.379%
CC(C)Oc1ccc(C(=O)Nc2c(C(=O)Nc3cccc(F)c3)oc3ccccc23)cc1 2.65%
COc1ccc(-c2cc(C(F)(F)F)nc(SCC(=O)NCC(C)C)n2)cc1OC -8.14%
Cc1ccc(CNC(=O)c2ccc(CS(=O)Cc3cccc(Cl)c3)o2)cc1 (stereo unspecified) -6.25%
Cc1ccn2c(=O)cc(COc3cccc(NC(=O)Nc4cccc(Cl)c4C)c3)nc2c1 0.408%
COc1ccccc1NC(=O)C1=C(C)Nc2nc3ccccc3n2C1c1cccc(OC)c1OC (stereo unspecified) -3.16%
O=C(NCCCN1CCOCC1)c1ccc2c(c1)N(Cc1cccc(Cl)c1)C(=O)c1ccccc1S2 4.12%
COc1ccc(NC(C)=O)cc1NC(=O)CN1CCN(c2ccc(F)cc2)CC1 0%
O=S(=O)(c1cccc2ccccc12)N1CCN(c2ccc(Cl)c(Cl)c2)CC1 -2.27%
CCOc1cc(C(=O)NCC(c2ccc(N(C)C)cc2)N2CCOCC2)cc(OCC)c1OCC (stereo unspecified) 4.68%
CCOc1ccc(CNCc2c(C(=O)O)c(C)n(Cc3c(F)cccc3Cl)c2C)cc1OC -4.49%
Cc1ccc(-c2cn3c(n2)sc2cc(C(=O)NCCCc4ccccc4)ccc23)c(C)c1 4.24%
CC1CCCN(S(=O)(=O)c2ccc3c(c2)c(=O)nc2ccccn23)C1 (stereo unspecified) 5.25%
CC(C)c1ccc(S(=O)(=O)N2CCC(N3CCN(Cc4ccccc4)C(=O)C3=O)CC2)cc1 2.2%
CC(CCc1ccccc1)NC(=O)Cn1c(=O)nc(-c2ccccc2)c2ccccc21 (stereo unspecified) 0%
CCOC(=O)c1cnc2c(C)c(Cl)ccc2c1Nc1ccc(N2CCOCC2)cc1 -2.48%
Cc1cc(C)c(S(=O)(=O)NCC(c2ccc(N(C)C)cc2)N2CCOCC2)c(C)c1 (stereo unspecified) 0.998%
Cc1ccc2oc(=O)n(CCCOc3ccccc3Cl)c2c1 13%
COc1ccccc1-c1noc(-c2ccc(NCC3CCCO3)c([N+](=O)[O-])c2)n1 (stereo unspecified) 0%
CCc1cccc(NC(=O)CN(C)S(=O)(=O)c2ccc3c(c2)CCCN3C(C)=O)c1 -2.16%
COc1ccc(C2=C(Nc3ccc(C)cc3C)c3ccccc3C2=O)cc1 -2.87%
CCCCN(C)CCNC(=O)CN1C(=O)CSc2ccc(S(=O)(=O)N3CCOCC3)cc21 4.5%
CCc1nn2c(=O)c(S(=O)(=O)Nc3ccc(Cl)cc3)c(C)nc2s1 7.81%
Cc1ccccc1Nc1c(-c2cccnc2)nc2ccc(Cl)cn12 2.86%
Cc1ccc(OCC(=O)Nc2nnc(S(=O)(=O)N3CCCCCC3)s2)cc1 0%
O=C(NCc1ccc(F)cc1)C1(c2cccs2)CCOCC1 -2.52%
COc1cc(Nc2nc3c(S(=O)(=O)c4ccc(C)c(C)c4)nnn3c3ccsc23)cc(OC)c1 -5.27%
CCOC(=O)c1c(NC(=O)C2c3ccccc3Oc3ccccc32)sc(C)c1CC 0.695%
CCn1c(=O)cc(OCC(=O)N(C)c2cc(Cl)ccc2C)c2ccccc21 -4.82%
COC(=O)c1ccccc1NC(=O)N1CCC(N2CCN(Cc3ccc(F)cc3)C(=O)C2=O)CC1 2.92%
CC(C)(C)C1CCc2nc(NC(=O)Cc3ccccc3)sc2C1 (stereo unspecified) -0.518%
COc1ccccc1N1C(=O)N(CC(=O)C(C)(C)C)c2ccccc2S1(=O)=O 0.688%
CN(C)CCNC(=O)c1ccc(-c2nn(C)c(=O)c3ccccc23)cc1 -4.71%
O=C1CN(C(=O)COc2ccc(Cl)cc2Cl)C(c2ccccc2)c2cc(F)ccc2N1 (stereo unspecified) 0%
CCOc1ccc(CCNC(=O)c2nn(C)c3c2CSc2ccccc2-3)cc1 3.32%
CCOc1ccccc1CNC(=O)CCCn1ccc2cc(S(=O)(=O)N3CCCC3)ccc21 -9.27%
O=C(O)c1ccc(NC(=O)c2cc(S(=O)(=O)N3CCCCC3)c(Cl)cc2Cl)cc1 2.62%
Cc1cccc(C(=O)NNc2ncnc3c2cnn3-c2ccc(C)cc2C)c1 -15.5%
CC(C)c1ccc(S(=O)(=O)c2cnc(SCC(=O)Nc3ccc4c(c3)OCCO4)[nH]c2=O)cc1 -1.3%
COc1cccc(C(=O)Nc2nnc(S(=O)(=O)N3CCCC3)s2)c1 2.47%
Cc1ccc(Cn2cnc3nc4c(cc3c2=O)CC(C)CC4)cc1 (stereo unspecified) -3.4%
CCCNC(=O)CN1C(=O)CSc2ccc(S(=O)(=O)N3CCC(C)CC3)cc21 -0.421%
CCC(C)NC(=O)CCCc1nnc2n(CC(C)C)c(=O)c3sccc3n12 (stereo unspecified) 0.126%
CCN(CC)C(=O)C1CCN(S(=O)(=O)c2c(C)noc2/C=C/c2cccc(OC)c2)CC1 -0.548%
CCOc1ccc(NC(=O)c2cc(S(=O)(=O)NC3CCCCCC3)ccc2F)cc1 -0.188%
Cc1ccccc1-c1noc(-c2ccc(NCc3ccco3)c([N+](=O)[O-])c2)n1 5.05%
COc1ccc2c(c1)CCc1c(C(=O)Nc3c(C)nn(Cc4ccccc4)c3C)noc1-2 -17%
COc1ccc2c(Sc3ccc(C)cc3)c(C(=O)NC(C)C)[nH]c2c1 -13.8%
CCOc1ccccc1NC(=O)CSc1nccn1-c1cccc(C)c1 0.307%
CCOc1ccc(-n2c(=O)c3c(C)c(C)sc3n(CC(=O)NCCc3ccccc3)c2=O)cc1 -1.19%
CCOc1ccc(C2CC(=O)c3c([nH]c(C(=O)OCC4CCCCC4)c3C)C2)cc1 (stereo unspecified) 2.66%
Cc1ccc(S(=O)(=O)C(CNC(=O)C(=O)NCCc2ccccc2)c2cccs2)cc1 (stereo unspecified) -11.1%
O=c1oc2ccccc2c(N2CCN(c3ccccc3F)CC2)c1CN1CCCC1 8.18%
COCCCNC(=O)c1nn(-c2ccc(C)cc2)nc1CO -2.75%
Cc1cccc(CNC(=O)Cn2ccc3cc(S(=O)(=O)N4CCCCCC4)ccc32)c1 -10.7%
COc1cccc(NC(=O)C(Cc2ccccc2)NS(=O)(=O)c2ccc3c(c2)c(=O)n(C)c(=O)n3C)c1 (stereo unspecified) -1.82%
CCCc1cc(=O)oc2cc(C)c3c(-c4ccccc4)coc3c12 -0.853%
O=C(CN1C(=O)CSc2ccc(S(=O)(=O)N3CCCC3)cc21)Nc1cccc(Cl)c1 -6.63%
Cc1ccc(NC(=O)CC2Nc3ccccc3NC2=O)cc1C (stereo unspecified) 2.89%
Cc1ccccc1C(=O)N(Cc1sccc1C)C1CCS(=O)(=O)C1 (stereo unspecified) 2.68%
COc1ccc(CCNC(=O)c2ccc(Cn3c(=O)c4ccccc4n(CC(=O)C(C)(C)C)c3=O)cc2)cc1OC -0.0697%
COc1cc(NC(=O)CCn2nc(C)c(S(=O)(=O)N3CCCCC3)c2C)cc(OC)c1OC 2.59%
Cc1ccc(Cl)cc1NC(=O)CCCn1c(=O)c2cccn2c2cccnc21 -3.45%
COc1ccccc1NC(=O)C1=C(C)Nc2c(C(=O)Nc3cccc(C)c3)cnn2C1c1ccccc1Cl (stereo unspecified) 5.11%
CC1CCCCN1CCCNC(=O)CN1C(=O)c2cccnc2Oc2ccccc21 (stereo unspecified) 0.632%
COc1ccc(-c2nc3n(n2)C(c2ccc(OC)c(OC)c2)C(C(=O)Nc2cccnc2)=C(C)N3)cc1 (stereo unspecified) 4.43%
